The list shows a part of the results. At the low end of the ranking the order means little.

This assay concerns the target GST-SBP-SLBP (stem-loop binding protein) (UniProt Q14493). As to the kind of experiment: targeted RNA Bind-n-Seq.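 Also: DESeq read counts versus GST-SBP nonspecific binding control pulldown.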 The note with it: RBNS binding buffer: 25 mM Tris pH 7.5, 150 mM KCl, 3 mM MgCl2, 0.1% Tween, 0.5 mg/mL BSA, 1 mM DTT; 27 nM protein, 750 pM RNA pool; temperature not stated; high values mean tight binding.
On to “GGUCACGUCUCAAUCAACUCAUCGCCAGGAGUUUUCUCCUGUUUUCUCAACAGCUCGCAGUCAAG”, for which the binding signal (log2 fold change) is 0.0619.

As to “GGUCACGUCUCAAUCAACUCUUAAGAGGGGGGGAAAACCCCUUUACCCUCAUACUCAACAGCUCGCAGUCAAG”, the binding signal (log2 fold change) was -0.392. In the case of “GGUCACGUCUCAAUCAACUCAUUCUCAGGAGUUUCCUCCUGCUAAGUCAACAGCUCGCAGUCAAG”, the binding signal (log2 fold change) turned out to be 0.146. In the case of “GGUCACGUCUCAAUCAACUCAUUUCCAGGAGUUUGCUCCUGCAUUCUCAACAGCUCGCAGUCAAG”, the binding signal (log2 fold change) was found to be 0.0315. As for “GGUCACGUCUCAAUCAACUCAGUCUCAGGAGUUUACUCCUGCAAAUUCAACAGCUCGCAGUCAAG”, the binding signal (log2 fold change) is -0.0839.

“GGUCACGUCUCAAUCAACUCUUCCCCCAGGGAAAUCCCUGGCAAAUUCAACAGCUCGCAGUCAAG”: the binding signal (log2 fold change) is -0.0552. Regarding “GGUCACGUCUCAAUCAACUCUUUAGAGGGGGGGAAAACCCCUUUGCCCUCAUUCUCAACAGCUCGCAGUCAAG”, the binding signal (log2 fold change) was -0.217. As for “GGUCACGUCUCAAUCAACUCUAAAGAGGGGGGGAAAACCCCUUUACCCUCCAUAUCAACAGCUCGCAGUCAAG”, the figure is -0.526; as for “GGUCACGUCUCAAUCAACUCUCACGAGGGGGGGAAAACCCCUUUACCCUCUACAUCAACAGCUCGCAGUCAAG”, 0.123; as for “GGUCACGUCUCAAUCAACUCUAUCCCAGGAGUUUUCUCCUGCUUUUUCAACAGCUCGCAGUCAAG”, 0.0607. For the sequence “GGUCACGUCUCAAUCAACUCCCUAGAGGGGGGGAAAACCCCUUUACCCUCAAAUUCAACAGCUCGCAGUCAAG”, the binding signal (log2 fold change) is 0.137.

As to “GGUCACGUCUCAAUCAACUCUACUCCCAGGGAAAACCCUGGUUAUUUCAACAGCUCGCAGUCAAG”, the binding signal (log2 fold change) turned out to be 0.166.

Consider “GGUCACGUCUCAAUCAACUCAGUCUCAGGAGUUUGCUCCUGCUUAUUCAACAGCUCGCAGUCAAG”, for which the binding signal (log2 fold change) was -0.0841. The result for “GGUCACGUCUCAAUCAACUCAAUGUCAGGAGUUUUCUCCUGUAAAUUCAACAGCUCGCAGUCAAG” reads -0.0312. Regarding “GGUCACGUCUCAAUCAACUCAACUUCCAGGGAAAUCCCUGGCAAUCUCAACAGCUCGCAGUCAAG”, the binding signal (log2 fold change) came to 0.126. In the case of “GGUCACGUCUCAAUCAACUCAGUCCCCAGGGAAACCCCUGGUUUAUUCAACAGCUCGCAGUCAAG”, the binding signal (log2 fold change) is -0.284.

On to “GGUCACGUCUCAAUCAACUCAUUUCCCAGGGAAAUCCCUGGCUUUCUCAACAGCUCGCAGUCAAG”, for which the binding signal (log2 fold change) stood at 0.169. The result for “GGUCACGUCUCAAUCAACUCAAUCCCCAGGGAAAACCCUGGUUAUCUCAACAGCUCGCAGUCAAG” reads 0.0531; that for “GGUCACGUCUCAAUCAACUCAUCUCCCAGGGAAAGCCCUGGCAAUCUCAACAGCUCGCAGUCAAG”, -0.135; that for “GGUCACGUCUCAAUCAACUCUUCUUCCAGGGAAAUCCCUGGCAUUUUCAACAGCUCGCAGUCAAG”, -0.0522. In the case of “GGUCACGUCUCAAUCAACUCACCCGAGGGGGGGAAAACCCCUUUACCCUCAUUAUCAACAGCUCGCAGUCAAG”, the binding signal (log2 fold change) was 0.251. Take “GGUCACGUCUCAAUCAACUCUUCCUCCAGGGAAAGCCCUGGUUUUUUCAACAGCUCGCAGUCAAG”: the binding signal (log2 fold change) was -0.166. In the case of “GGUCACGUCUCAAUCAACUCAACGCCAGGAGUUUACUCCUGCAAAUUCAACAGCUCGCAGUCAAG”, the binding signal (log2 fold change) is -0.0755.

Take “GGUCACGUCUCAAUCAACUCUUUUUCCAGGGAAACCCCUGGCUAUCUCAACAGCUCGCAGUCAAG”: the binding signal (log2 fold change) was 0.131. On to “GGUCACGUCUCAAUCAACUCAUUCUCAGGAGUUUACUCCUGCAUAGUCAACAGCUCGCAGUCAAG”, for which the binding signal (log2 fold change) amounted to 0.00329. For “GGUCACGUCUCAAUCAACUCCUAAGAGGGGGGGAAAACCCCUUUGCCCUCCAUGUCAACAGCUCGCAGUCAAG”, the binding signal (log2 fold change) is -0.155. Take “GGUCACGUCUCAAUCAACUCAAUCUCCAGGGAAAACCCUGGUAAACUCAACAGCUCGCAGUCAAG”: the binding signal (log2 fold change) is 0.181.

Turning to “GGUCACGUCUCAAUCAACUCUAAGGAGGGGGGGAAAACCCCUUUACCCUCAUACUCAACAGCUCGCAGUCAAG”, the binding signal (log2 fold change) is -0.0232. The result for “GGUCACGUCUCAAUCAACUCUUUCCCCAGGGAAAGCCCUGGCAUACUCAACAGCUCGCAGUCAAG” reads -0.0323; that for “GGUCACGUCUCAAUCAACUCACUAGAGGGGGGGAAAACCCCUUUACCCUCAACAUCAACAGCUCGCAGUCAAG”, 0.0365; that for “GGUCACGUCUCAAUCAACUCUUUCUCCAGGGAAAACCCUGGUUAACUCAACAGCUCGCAGUCAAG”, 0.127. “GGUCACGUCUCAAUCAACUCUCACGAGGGGGGGAAAACCCCUUUACCCUCAUCAUCAACAGCUCGCAGUCAAG”: the binding signal (log2 fold change) was -0.0221. For “GGUCACGUCUCAAUCAACUCAACGCCAGGAGUUUUCUCCUGCUAUUUCAACAGCUCGCAGUCAAG”, the binding signal (log2 fold change) is -0.0418. Turning to “GGUCACGUCUCAAUCAACUCAUCCCCCAGGGAAAACCCUGGUUUAUUCAACAGCUCGCAGUCAAG”, the binding signal (log2 fold change) was -0.152.

As for “GGUCACGUCUCAAUCAACUCAGUCUCAGGAGUUUGCUCCUGCAUAUUCAACAGCUCGCAGUCAAG”, the binding signal (log2 fold change) is 0.0927. For “GGUCACGUCUCAAUCAACUCAAUUCCCAGGGAAAGCCCUGGCUUACUCAACAGCUCGCAGUCAAG”, the binding signal (log2 fold change) was -0.249. As to “GGUCACGUCUCAAUCAACUCAUCCUCCAGGGAAACCCCUGGUAAUCUCAACAGCUCGCAGUCAAG”, the binding signal (log2 fold change) was -0.0848.

On to “GGUCACGUCUCAAUCAACUCUUCCUCAGGAGUUUACUCCUGUAUUUUCAACAGCUCGCAGUCAAG”, for which the binding signal (log2 fold change) stood at 0.00623. For the sequence “GGUCACGUCUCAAUCAACUCAACUUCCAGGGAAACCCCUGGUAAACUCAACAGCUCGCAGUCAAG”, the binding signal (log2 fold change) was found to be 0.177. In the case of “GGUCACGUCUCAAUCAACUCUUUCCCAGGAGUUUACUCCUGCUAAUUCAACAGCUCGCAGUCAAG”, the binding signal (log2 fold change) is 0.0344. On to “GGUCACGUCUCAAUCAACUCAUCGCCCAGGGAAACCCCUGGUAUAUUCAACAGCUCGCAGUCAAG”, for which the binding signal (log2 fold change) is 0.195. For “GGUCACGUCUCAAUCAACUCUUUCUCAGGAGUUUGCUCCUGCAAUUUCAACAGCUCGCAGUCAAG”, the binding signal (log2 fold change) came to 0.0895. As for “GGUCACGUCUCAAUCAACUCUAUUUCCAGGGAAACCCCUGGUUUUCUCAACAGCUCGCAGUCAAG”, the binding signal (log2 fold change) is -0.0664.

In the case of “GGUCACGUCUCAAUCAACUCUCUAGAGGGGGGGAAAACCCCUUUGCCCUCAAUGUCAACAGCUCGCAGUCAAG”, the binding signal (log2 fold change) was -0.114. As to “GGUCACGUCUCAAUCAACUCAGUCUCCAGGGAAACCCCUGGCUUUUUCAACAGCUCGCAGUCAAG”, the binding signal (log2 fold change) is -0.125. The result for “GGUCACGUCUCAAUCAACUCUAUUUCCAGGGAAAACCCUGGUUUUUUCAACAGCUCGCAGUCAAG” reads -0.231.

Turning to “GGUCACGUCUCAAUCAACUCAUCCUCCAGGGAAAACCCUGGUUAACUCAACAGCUCGCAGUCAAG”, the binding signal (log2 fold change) was -0.194.

Turning to “GGUCACGUCUCAAUCAACUCUAUCUCAGGAGUUUUCUCCUGCAUUCUCAACAGCUCGCAGUCAAG”, the binding signal (log2 fold change) was -0.0426. As for “GGUCACGUCUCAAUCAACUCAUUUCCAGGAGUUUGCUCCUGCUUUCUCAACAGCUCGCAGUCAAG”, the figure is -0.053. On to “GGUCACGUCUCAAUCAACUCUUCCCCAGGAGUUUACUCCUGCAUAUUCAACAGCUCGCAGUCAAG”, for which the binding signal (log2 fold change) is -0.0729. In the case of “GGUCACGUCUCAAUCAACUCUAUCCCCAGGGAAAGCCCUGGUAAACUCAACAGCUCGCAGUCAAG”, the binding signal (log2 fold change) was -0.0617.

For “GGUCACGUCUCAAUCAACUCCAUAGAGGGGGGGAAAACCCCUUUGCCCUCAAUUUCAACAGCUCGCAGUCAAG”, the binding signal (log2 fold change) is 0.426. As to “GGUCACGUCUCAAUCAACUCUAUCCCAGGAGUUUACUCCUGCUUUUUCAACAGCUCGCAGUCAAG”, the binding signal (log2 fold change) was -0.0743. The result for “GGUCACGUCUCAAUCAACUCAUUUCCCAGGGAAAUCCCUGGCUUAUUCAACAGCUCGCAGUCAAG” reads 0.0292; that for “GGUCACGUCUCAAUCAACUCAACUCCAGGAGUUUUCUCCUGUAAUGUCAACAGCUCGCAGUCAAG”, 0.0275. Regarding “GGUCACGUCUCAAUCAACUCUUCUUCCAGGGAAACCCCUGGCGUAUUCAACAGCUCGCAGUCAAG”, the binding signal (log2 fold change) was determined as 0.0792. As for “GGUCACGUCUCAAUCAACUCUAAAGAGGGGGGGAAAACCCCUUUGCCCUCAUUUUCAACAGCUCGCAGUCAAG”, the figure is -0.789; as for “GGUCACGUCUCAAUCAACUCUAGUCCAGGAGUUUUCUCCUGUUUAUUCAACAGCUCGCAGUCAAG”, 0.0691. Regarding “GGUCACGUCUCAAUCAACUCUCAAGAGGGGGGGAAAACCCCUUUACCCUCAAUUUCAACAGCUCGCAGUCAAG”, the binding signal (log2 fold change) was -0.102. In the case of “GGUCACGUCUCAAUCAACUCAUUCCCAGGAGUUUACUCCUGUAAUUUCAACAGCUCGCAGUCAAG”, the binding signal (log2 fold change) came to 0.331. As for “GGUCACGUCUCAAUCAACUCAGUUCCAGGAGUUUUCUCCUGCUUAUUCAACAGCUCGCAGUCAAG”, the binding signal (log2 fold change) was -0.0573. Take “GGUCACGUCUCAAUCAACUCAGUCUCCAGGGAAAGCCCUGGCAUAUUCAACAGCUCGCAGUCAAG”: the binding signal (log2 fold change) is -0.188. “GGUCACGUCUCAAUCAACUCUAGUCCCAGGGAAAUCCCUGGCAAUCUCAACAGCUCGCAGUCAAG”: the binding signal (log2 fold change) is -0.0203.

In the case of “GGUCACGUCUCAAUCAACUCUAUUUCAGGAGUUUUCUCCUGCAAACUCAACAGCUCGCAGUCAAG”, the binding signal (log2 fold change) is 0.0732. The result for “GGUCACGUCUCAAUCAACUCUAUUUCCAGGGAAACCCCUGGCUAUCUCAACAGCUCGCAGUCAAG” reads 0.0945. Take “GGUCACGUCUCAAUCAACUCAUCCCCAGGAGUUUACUCCUGUUUUUUCAACAGCUCGCAGUCAAG”: the binding signal (log2 fold change) came out at 0.0173. With “GGUCACGUCUCAAUCAACUCAACUUCCAGGGAAAUCCCUGGUUUAUUCAACAGCUCGCAGUCAAG”, the binding signal (log2 fold change) is -0.0939.

As to “GGUCACGUCUCAAUCAACUCAAUCGAGGGGGGGAAAACCCCUUUACCCUCACAAUCAACAGCUCGCAGUCAAG”, the binding signal (log2 fold change) turned out to be 0.157.

Take “GGUCACGUCUCAAUCAACUCACAAGAGGGGGGGAAAACCCCUUUGCCCUCGUAAUCAACAGCUCGCAGUCAAG”: the binding signal (log2 fold change) was -0.318. On to “GGUCACGUCUCAAUCAACUCAAUCCCAGGAGUUUUCUCCUGCUAAGUCAACAGCUCGCAGUCAAG”, for which the binding signal (log2 fold change) came to 0.206. Turning to “GGUCACGUCUCAAUCAACUCAUUAGAGGGGGGGAAAACCCCUUUACCCUCAAUUUCAACAGCUCGCAGUCAAG”, the binding signal (log2 fold change) was found to be 0.0094. On to “GGUCACGUCUCAAUCAACUCUCCGGAGGGGGGGAAAACCCCUUUACCCUCAUCUUCAACAGCUCGCAGUCAAG”, for which the binding signal (log2 fold change) was -0.0595. As for “GGUCACGUCUCAAUCAACUCAUCUUCAGGAGUUUACUCCUGCUUUUUCAACAGCUCGCAGUCAAG”, the figure is 0.242.

As to “GGUCACGUCUCAAUCAACUCUCUAGAGGGGGGGAAAACCCCUUUACCCUCAAUGUCAACAGCUCGCAGUCAAG”, the binding signal (log2 fold change) stood at 0.0174.

(Values after paper PMC5892938.)
